The campaign covered roughly 280,000 compounds. About 100 (0.036%) were called active. Inconclusive means that the source gave no clear call. Such entries were picked first, then a sample of the others. The call rests on the fitted dose curve; in most records, active means well fitted inhibition curve with a large enough effect in the signal ratio, with a control signal flat (not every such curve was filed as active); inconclusive means small, poorly fitted or top-dose-only effect, or effect the other way, or a change in a side signal; inactive means no such curve, though single readings can be large or run the other way; the % refers to the signal ratio. Potencies of inconclusive entries are doubtful fits and often do not repeat. “Side channel” marks fits to a control or component signal instead of the main read-out.
What follows are compounds tested against Muscleblind-like protein 1 (Homo sapiens) (UniProt Q9NR56) (assay: qHTS Assay for Inhibitors of MBNL1-poly(CUG) RNA binding). Details: TR-FRET MBNL1-His/biotin-(CUG)12 binding, 665/545 ratio; activity change, negative = inhibition: at 57.5 µM (top of the series).
Outline: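 His-tagged MBNL1 binding to biotinylated (CUG)12 RNA was measured by TR-FRET using terbium anti-His antibody (0.055 ng/ul final) and streptavidin-XL665 (5 nM final). Compounds were titrated 92 nM to 58 uM; 60 min at room temperature.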
On the % scale 0 is the no-effect control and ±100 the full control effect; potency means the concentration at half of the fitted maximal effect; tags describe the fitted curve by direction and shape or compound fluorescence and quenching.

Chain of UniProt Q9NR56 (Q9NR56 whole entry, looked up): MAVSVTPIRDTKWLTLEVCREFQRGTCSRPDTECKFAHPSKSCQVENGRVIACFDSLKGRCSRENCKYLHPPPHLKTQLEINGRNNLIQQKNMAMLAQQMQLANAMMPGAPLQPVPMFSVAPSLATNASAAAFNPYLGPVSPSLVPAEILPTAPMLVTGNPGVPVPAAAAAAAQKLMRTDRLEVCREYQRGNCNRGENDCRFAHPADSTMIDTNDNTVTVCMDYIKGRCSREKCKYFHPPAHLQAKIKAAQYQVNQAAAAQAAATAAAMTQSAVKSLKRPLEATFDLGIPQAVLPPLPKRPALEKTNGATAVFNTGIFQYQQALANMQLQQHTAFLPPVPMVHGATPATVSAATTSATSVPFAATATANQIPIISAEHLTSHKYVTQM

Structure (SMILES) | Potency | activity change, negative = inhibition
Cn1nc([N+](=O)[O-])c(C(C#N)c2nc3ccccc3n2C)c(Cl)c1=O (stereo not drawn) | inconclusive: 31.6 µM [quencher, side channel, partial curve] | –
Cc1nonc1C(=O)N/N=C/c1cccc(O)c1 | inconclusive: 39.8 µM [quencher, side channel, partial curve, poor fit] | –
O=S(=O)(NCC1CCCO1)c1ccc(S(=O)(=O)N2CCc3ccccc3C2)cc1 (stereo not drawn) | inconclusive: 0.794 µM [quencher, side channel, single point] | –
COc1ccccc1-n1cnnc1SCC(=O)Nc1cc(C(C)(C)C)nn1-c1ccccc1 | – | inactive: 0.58%
CC1CCC(=O)N(CCSc2ccccc2)CC1 (stereo not drawn) | – | inactive: -9.23%
O=c1[nH]c(=O)n(Cc2ccccc2)c2c1C(C(F)(F)F)(C(F)(F)F)N=C(c1ccco1)N2 | – | inactive: -0.932%
CCOc1ccc(/C=C/C2=CC(C)(C)NC(=S)N2)cc1 | – | inactive: 6.09%
COCCNC(=O)C(=O)NNS(=O)(=O)c1ccc(Cl)cc1 | – | inactive: -7.22%
Cn1nccc1C(=O)N1CCN(S(=O)(=O)c2ccc(Br)s2)CC1 | – | inactive: -6.47%
COc1ccccc1C(=O)OCc1ccc2sc(C)nc2c1 | – | inactive: -18.2%
COc1ccc2cc(C(=O)Nc3ccc(O)cc3)sc(=O)c2c1OC | inconclusive: 15.8 µM [quencher, side channel, partial curve, poor fit] | –
CC(=O)Oc1ccc2nc(/C=C/c3ccc(C=O)cc3)oc(=O)c2c1 | inconclusive: 15.8 µM [quencher, side channel, partial curve] | –
CCOc1ccc(OCC)c(-c2c(=O)n(OCc3ccccc3C(=O)OC)c3ccccc3[n+]2[O-])c1 | inconclusive: 12.6 µM [quencher, side channel, partial curve] | –
O=C1c2ccccc2C(=O)N1CC1c2ccccc2CCN1S(=O)(=O)c1cnc[nH]1 (stereo not drawn) | inconclusive: 7.08 µM [quencher, side channel, partial curve] | –
C[N+]1(CC(=O)OCCCc2ccccc2)CCOCC1 | – | inactive: -28.8%
O=[N+]([O-])c1ccc(Oc2cccc3cccnc23)c([N+](=O)[O-])c1 | inconclusive: 11.2 µM [quencher, side channel, partial curve] | –
C=CS(=O)(=O)c1sc(Cl)c(N2CCOCC2)c1[N+](=O)[O-] | inconclusive: 25.1 µM [quencher, side channel, partial curve] | –
Cc1ccc(O)c(C(=O)c2cnc3c(c2)c(-c2ccc(F)cc2)c(C#N)c(=O)n3C)c1 | inconclusive: 11.2 µM [quencher, side channel, partial curve] | –
COc1cccc(CNC(=O)CCCC(=O)Nc2cccc([N+](=O)[O-])c2)c1 | inconclusive: 14.1 µM [quencher, partial curve] | –

Structure (SMILES) | Potency | activity change, negative = inhibition
O=C(NC1=NCCS1)c1ccc(-c2ccc(Cl)cc2)o1 | inconclusive: 14.1 µM [quencher, side channel, partial curve] | –
Cc1cccc2c1N(C)C(=O)C2=O | inconclusive: 25.1 µM [quencher, side channel, partial curve] | –
COc1cc(-c2nc(-c3cccnc3)no2)cc(OC)c1OC | inconclusive: 1.12 µM [quencher, side channel, single point] | –
CC(C)(C)NC(=O)c1cccc(NC(=O)c2ccc3c(c2)C(=O)N(C(C)(C)C)C3=O)c1 | inconclusive: 22.4 µM [quencher, side channel, single point] | –
Cc1noc(NS(=O)(=O)c2ccc(N/C=C/C(=O)c3ccccc3)cc2)c1C | inconclusive: 22.4 µM [quencher, side channel, single point] | –
Cc1nc(SCC(=O)c2ccc(F)cc2)c([N+](=O)[O-])[nH]1 | inconclusive: 15.8 µM [quencher, side channel, partial curve] | –
COc1ccc(Nc2nc(Cl)c(C=O)s2)cc1 | inconclusive: 15.8 µM [quencher, side channel, partial curve] | –
COc1cc(NC(=O)COC(=O)/C=C/c2ccc(OC)c(OC)c2)cc(OC)c1 | inconclusive: 31.6 µM [quencher, side channel, single point] | –
Cc1c(C#N)c(O)[nH]c(=O)c1N=Nc1ccc(S(N)(=O)=O)cc1 | inconclusive: 12.6 µM [quencher, side channel, partial curve] | –
Nc1c(-c2ccccc2Cl)cnn1-c1cccc([N+](=O)[O-])c1 | inconclusive: 15.8 µM [quencher, partial curve] | –
Brc1ccc(/C=N/n2cnnc2)s1 | inconclusive: 22.4 µM [quencher, side channel, partial curve] | –
COc1cccc(-n2nc(-c3ccnn3-c3ccc(C)cc3)c(=O)n(C)c2=O)c1 | inconclusive: 25.1 µM [quencher, side channel, single point] | –
CCOc1ccc2nc(COC(=O)c3ccncc3)c(C(=O)c3ccccc3)[n+]([O-])c2c1 | inconclusive: 1 µM [quencher, side channel, full curve] | –
CN(C)c1ccc(/C=C(\NC(=O)c2ccccc2)C(=O)N/N=C/c2ccc(C(=O)O)cc2)cc1 | inconclusive: 12.6 µM [quencher, side channel, partial curve] | –
O=C(O)Cc1sc(Nc2ccccc2)nc1-c1ccc(Cl)cc1 | – | inactive: 10.8%
CCNC(=O)/C(C#N)=C/c1c(N2CCOCC2)nc2ccccn2c1=O | inconclusive: 12.6 µM [quencher, side channel, partial curve] | –
O=C(CNCc1cccc2ccccc12)Nc1ccccc1[N+](=O)[O-] | inconclusive: 28.2 µM [quencher, side channel, single point] | –
Cc1ccc(S(=O)(=O)N(CC(=O)Nc2cccnc2)c2cccc([N+](=O)[O-])c2)cc1 | inconclusive: 28.2 µM [quencher, side channel, partial curve] | –
Cc1ccc(-c2nnc(Nc3ccc(C(N)=O)cc3)c3ccccc23)cc1S(=O)(=O)NCC1CCCO1 (stereo not drawn) | inconclusive: 3.16 µM [quencher, side channel, single point] | –

— PubChem BioAssay AID2675 (National Center for Advancing Translational Sciences (NCATS), 2010)
